Results on 24 sequences are retold here after the supplement of paper PMC11417369.

Some of the results follow.

This assay deals with PF3D7_0420300 AP2 domain 1 (GST-tagged). The assay can be described thus: gcPBM binding intensity (ln(normalized median fluorescence intensity)); higher = stronger DNA binding. The method, boiled down:
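Each value is the highest Masliner-normalised natural-log median intensity across replicate spots of either orientation of a probe. The probes were primer-extended double-stranded 36-bp intergenic genomic sequences on an Agilent 4 × 180k array, alongside negative controls, exposed for 1 h to GST-tagged P. falciparum DNA-binding domains expressed in E. coli. Bound protein was picked up with Alexa488 anti-GST antibody and scanned at 488 nm.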
Take “TTTCGTAAACAAATTTGTACGTACAAATTTATAAAT [XGTACX_site8175]”: the “gcPBM binding intensity (ln)” value amounted to 9.01.
The same measure for “TTTTTACTAATAAGATGTACATATATCCTAAGCATA [XGTACX_site251]”: 9.09.
Take “TACATACATACATACACACATACATATATATATATA [CACACA_site1387]”: the “gcPBM binding intensity (ln)” value was 9.52.
The same measure for “TCTTTTATTAGTAAAAGTACTTATATAAATATTATA [XGTACX_site5099]”: 8.96.
The result for “ATAATATAATAAACGTGTACACAATTAAATTATTAT [XGTACX_site3491]” reads 9.5.
For the sequence “TTTTTATTACTTCTCTGTACTCAGGAAAATAAATAT [XGTACX_site2092]”, the “gcPBM binding intensity (ln)” value was 8.95.
The same measure for “TGAATGTAAGAAAATACACACTAGTATAGTAACACC [CACACA_site5131]”: 9.82; for “TTGATTATAATTAGTACACACAAAATACATGCGGGG [CACACA_site2277]”: 9.68; for “AAATATATAATACATATGTAATATGCATATATATAT [GTGCAC_negctrl_site450]”: 9.24.
The result for “TATTTACATGTAAAAGGTACACACATTATATATACA [XGTACX_site2157]” reads 9.62; that for “TTTATTATTTTTTGTAGTACTTTATATAAAAGTTCT [XGTACX_site4494]”, 9.07; that for “ATACACTTTTATATATCAATACATTATGTATTAAGT [CACACA_negctrl_site421]”, 9.21.
The same measure for “CCTCTTTATTTTAATTGTACATTTTTGTAGGTTTTT [XGTACX_site7130]”: 9.5; for “ATGTATATATATATATGTACTAATTAGTAATTTACG [XGTACX_site6276]”: 9.37.
As to “AAAACAAACCCATTTACACACATAAATAAATCAATT [CACACA_site6126]”, the “gcPBM binding intensity (ln)” value is 9.79.
The result for “TCCTTTTTTTTGTAATGTACTTAGTTTGGTTATATG [XGTACX_site8208]” reads 9.72.
The result for “TGGAAAAATAGGCACACACACATATATACATATATA [CACACA_site1297]” reads 10; that for “TTTTAATAACCAATCCGTACATATAATCTTTATATT [XGTACX_site536]”, 9.18; that for “TGAAAAATTACAAAAATAATAAAATGAAATAATAAA [GTGCAC_negctrl_site53]”, 9.27.
For the sequence “TTATTATATTCTCCTTCACACACAAAAATATTTCAT [CACACA_site8738]”, the “gcPBM binding intensity (ln)” value was determined as 9.64.
Take “TAAAAGTTATAAGAGTGTACGTATATTTATATATCA [XGTACX_site2972]”: the “gcPBM binding intensity (ln)” value worked out at 9.18.
The same measure for “AGGACTAATATTTGAACACACATATAACATATACAT [CACACA_site7803]”: 9.61; for “CTTTTAAATTATTTTTGTACATAATTATATATATAT [XGTACX_site4128]”: 9.26; for “AACTATAAATATAAATGTACACATATGTAATATATA [XGTACX_site6085]”: 9.4.
